About 120 (0.25%) of roughly 48,000 compounds were called active. Another 4% or so got no clear call; they are omitted. Calls follow the shape of the dose curve; as a rule, active = well fitted activation curve with a large enough effect; inconclusive = small, poorly fitted or top-dose-only effect, or another doubt; inactive = no such curve, though single readings can be large or run the other way. The list shows a part of the results.
experiment: Primary qHTS for Identification of Small Molecule Activators of Huntingtin-Antisense Promoter Activity; conditions: HEK293 HTT-AS promoter firefly luciferase reporter (activity 0% = vehicle and -100% = no light), 24 h; series mostly up to 57.5 µM; activity change, positive = activation: at the top concentration; also: nearly all actives have a fitted effect of over 55% in size
How it was run: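 Firefly luciferase readout (Dual-Glo, 10 min RT) after 24 h, 37 °C compound exposure (final up to 57.5 uM) of HEK293 reporter cells cultured 24 h beforehand; PTC124 at 50 uM final as control inhibitor; activity scaled vehicle 0%, zero RLU -100%.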
Potency is read from the fitted curve at half-maximal effect.

SMILES | activity change, positive = activation | Potency
CCOc1ccccc1N1CC(c2nc3ccccc3n2CCCOc2ccccc2OC)CC1=O (stereo unspecified) | inactive: 7.34% | –
COc1cccc(CNC(=O)Cn2ccc3cc(S(=O)(=O)N4CCCC4)ccc32)c1 | inactive: -17.7% | –
O=C(NCc1ccccc1)C1CCC(CNS(=O)(=O)c2ccc(Br)s2)CC1 (stereo unspecified) | inactive: -12.2% | –
CC1CCc2nn(CC(=O)Nc3cccc(C(F)(F)F)c3)c(=O)cc2C1 (stereo unspecified) | inactive: -18.2% | –
COc1cc(NC(=O)Cn2c(=O)n(C(C)C)c(=O)c3oc4ccccc4c32)cc(OC)c1 | inactive: -12.3% | –
O=C(Nc1cccnc1Cl)c1cc(-c2ccc(Cl)cc2)on1 | inactive: 7.77% | –
Cc1cc(C)c(NC(=O)CSc2nnc3[nH]c(=O)cc(C)n23)c(C)c1 | inactive: 12% | –
O=c1c2ccccc2n2c(-c3ccc(F)c(F)c3)nnc2n1CCc1ccccc1 | inactive: 27.1% | –
CCOC(=O)c1ccccc1NC1(c2ccc(OC)cc2)C(=O)c2ccccc2C1=O | inactive: -21.4% | –
CCC(=O)Nc1ccc2nc(SCC(=O)N3CCc4ccccc43)sc2c1 | inactive: -15.4% | –
CCOC(=O)c1c(S(=O)(=O)N2CCCC(C(=O)Nc3ccc(C)cc3C)C2)c(C)n(CC)c1C (stereo unspecified) | inactive: 16% | –
COC(=O)c1ccc(C2c3c(oc4cc(C)c(C)cc4c3=O)C(=O)N2c2ccccn2)cc1 (stereo unspecified) | inactive: -4.97% | –
CCOc1ccc(S(=O)(=O)Nc2ccc3c(c2)c(C(C)=O)c(C)n3S(=O)(=O)c2ccc(OCC)cc2)cc1 | inactive: -41.5% | –
Cc1cc(C)c(NC(=O)Cn2c(=O)n(CCC(=O)NCc3ccc4c(c3)OCO4)c(=O)c3ccccc32)c(C)c1 | inactive: -18.7% | –
CC(=O)Nc1ccc(C(=O)CSc2nnc3cc(C)c4ccccc4n23)cc1 | inactive: 0.228% | –
CCOC(=O)C1CCN(C(=O)CSc2c3c(nc4ccc(Cl)cc24)CCCC3)CC1 | inactive: -51.4% | –
COc1ccc(CCC(=O)NC2CC(=O)N(c3ccc(C)c(C)c3)C2)cc1 (stereo unspecified) | inactive: -7.77% | –
Cc1ccc(NC(=O)c2sc3nc(-c4ccc(F)cc4)cn3c2C)c(C)c1 | inactive: -11.3% | –
O=C(NCc1ccc(Cl)cc1)C(=O)NCC(c1ccco1)S(=O)(=O)c1cccs1 (stereo unspecified) | inactive: -13.3% | –
CCCCNC(=O)c1ccc2c(=O)n(-c3ccccc3)c(=O)[nH]c2c1 | inactive: -14.8% | –
CCc1ccc(NC(=O)C2CCCN(S(=O)(=O)c3c(C)[nH]c(=O)[nH]c3=O)C2)cc1 (stereo unspecified) | inactive: -12.6% | –

SMILES | activity change, positive = activation | Potency
COC(=O)c1ccc(Cn2nc(-c3ccc(C)c(C)c3)ccc2=O)cc1 | inactive: -15.1% | –
CC(C)c1ccc(NS(=O)(=O)c2ccc3[nH]c(=O)ccc3c2)cc1 | inactive: -27.5% | –
O=C(CCS(=O)(=O)c1cc2c3c(c1)CCN3C(=O)CC2)NCc1ccc(F)cc1 | inactive: -7.22% | –
COCCc1nn2c(=O)cc(COC(=O)COc3ccccc3C)nc2s1 | inactive: -0.165% | –
COc1ccc(Cl)cc1Nc1ncnc2c1nc1n2CCCC1 | inactive: -1.06% | –
O=C(Nc1noc2ccccc12)c1cccc(F)c1 | – | active: 2 µM
CC(C)c1ccc(NC(=O)C2CCCN(S(=O)(=O)c3cccc4nonc34)C2)cc1 (stereo unspecified) | inactive: -8.34% | –
O=C1CC(c2ccccc2)Cc2[nH]c(=O)c(-c3nc(-c4cccc(Cl)c4)cs3)cc21 (stereo unspecified) | inactive: -23.4% | –
CCOC(=O)Cn1c(=O)oc2cc(S(=O)(=O)NCc3ccc(F)cc3)ccc21 | inactive: -19.1% | –
COc1ccc(CNC(=O)C(=O)NCC(c2ccc3c(c2)OCO3)N2CCOCC2)cc1 (stereo unspecified) | inactive: -11.1% | –
CCCCC(CC)COC(=O)/C=C/c1ccc(OC)cc1 (stereo unspecified) | inactive: 1.1% | –
Cc1ccc(Cl)cc1N1CCN(C(c2ccc(F)cc2)c2nnc(-c3ccccc3)o2)CC1 (stereo unspecified) | inactive: 3.24% | –
COc1ccc(-c2cc(C(=O)N3CCN(c4ccccc4OC)CC3)c3cc(C(C)C)ccc3n2)cc1 | inactive: -22.6% | –
COC(=O)c1sccc1S(=O)(=O)N1CCN(c2cccc(C)c2C)CC1 | inactive: -32.8% | –
CCN(CC)CCc1nc(-c2ccccc2)no1 | inactive: 3.2% | –
Cc1noc(/C=C/N(C)C)c1S(=O)(=O)N1CCCC(C(=O)Nc2cccc(F)c2)C1 (stereo unspecified) | inactive: -26.4% | –
O=C(NCC1(c2ccccc2)CCCC1)C(=O)Nc1cccc(C(F)(F)F)c1 | inactive: 2.42% | –
COc1ccc2nc(NS(=O)(=O)c3ccc(C)cc3)c(Nc3cc(Cl)ccc3OC)nc2c1 | inactive: -29.3% | –
CCOc1ccc(CCNC(=O)CSc2cc(=O)n(C)c3ccccc23)cc1OCC | inactive: -4.57% | –
COc1ccc(OC)c(CCNC(=O)CCn2c(=O)c3cccn3c3cccnc32)c1 | inactive: -19.4% | –
CCCCN(c1ccccc1)c1ncnc2c1cnn2-c1ccc(Cl)cc1 | inactive: -51.3% | –

SMILES | activity change, positive = activation | Potency
CC(C)Cn1c(=O)c2ccccc2n2c(-c3ccc(Br)cc3)nnc12 | inactive: -16.3% | –
Cc1ccc(CN(Cc2ccco2)c2cnc(S(C)(=O)=O)nc2C(=O)Nc2ccc(Br)cc2)o1 | inactive: -33.3% | –
Cc1cc(C)cc(C(=O)Nc2cc(C(F)(F)F)ccc2N2CCN(c3ccccc3)CC2)c1 | inactive: -1.65% | –
Cc1ccccc1NC(=O)Cn1c(=O)n(Cc2ccc3c(c2)OCO3)c(=O)c2oc3ccccc3c21 | inactive: -10.1% | –
Cc1ccc(-c2cn3cccc(C)c3n2)cc1NS(=O)(=O)c1ccccc1 | inactive: 6.47% | –
O=C(c1ccccc1)N1CCc2cc(CNS(=O)(=O)c3ccccc3Cl)ccc21 | inactive: -27.7% | –
CCCCc1nc(Cl)c(CO)n1Cc1ccc(-c2ccccc2-c2nn[nH]n2)cc1 | inactive: 0.558% | –
Cc1cccc(N(CC(=O)NC(C)c2ccccc2)S(=O)(=O)c2ccccc2)c1C (stereo unspecified) | inactive: -33.5% | –
Cc1ccc(-c2nn3c(C)nnc3c3ccccc23)cc1S(=O)(=O)NCCO | inactive: -9.12% | –
CC(=O)Nc1ccc(S(=O)(=O)NCC2CCC(C(=O)NCCCOC(C)C)CC2)cc1 (stereo unspecified) | inactive: -1.63% | –
CCOc1cc(C(=O)OCc2cc(=O)n3c(C)csc3n2)cc(OCC)c1OCC | inactive: -6.82% | –
Cc1ccc(CNC(=O)c2cn(C)c3ccc(S(=O)(=O)N(C)C4CCCCC4)cc3c2=O)cc1 | inactive: -4.61% | –
CCc1ccc(-n2nc3ccc(NC(=O)c4cc5ccccc5o4)cc3n2)cc1 | inactive: 6.52% | –
Cc1ccc(CNC(=O)c2nc(SCc3cccc(C)c3)ncc2Cl)cc1 | inactive: -24.8% | –
CC(C=CC(=O)NO)=C[C@@H](C)C(=O)c1ccc(N(C)C)cc1 | inactive: -30.5% | –
CCOc1ccc(-c2cc3c(=O)n(Cc4nc(-c5cccc(OC)c5OC)oc4C)ccn3n2)cc1Cl | inactive: -9.49% | –
CCN(Cc1ccc(OC)cc1)c1ccc(-c2nc(-c3ccncc3)no2)cc1[N+](=O)[O-] | inactive: -20.4% | –
CCC(=O)N1CCc2cc(S(=O)(=O)CCC(=O)N3CCN(c4cccc(C)c4)C(C)C3)ccc21 (stereo unspecified) | inactive: -21.4% | –
Cc1cc(C)c(Cn2c3ccccc3c3cnn(CC(=O)NCCCc4ccccc4)c(=O)c32)c(C)c1 | inactive: -19.1% | –

— PubChem BioAssay AID1508624 (National Center for Advancing Translational Sciences (NCATS), 2021)
